B1: 89C8-23-F1 (other)
heavy: QVQLVQSGAEVKKPGSSVKVSCKASGGTFSSYAISWVRQAPGQGLEWMGGIIPILGIANYAQKFQGRVTITADKSTSTAYMELSSLRSEDTAVYYCARGGLGFGELFRKTGYYFDYWGQGTLVTVSSASTKGPSVFPLAPSSKSTSGGTAALGCLVKDYFPEPVTVSWNSGALTSGVHTFPAVLQSSGLYSLSSVVTVPSSSLGTQTYICNVNHKPSNTKVDKKV[letters of human IgG1 Fc with changes not shown]GGGGSGGGGSGGGGSGGGGSGEQAKTFLDKFNHEAEDLFYQS
light: EIVMTQSPATLSVSPGERATLSCRASQSVSSNLAWYQQKPGQAPRLLIYAASTRATAIPARFSGSGSGTEFTLTISSLQSEDFAVYFCQQYNKLPLTFGGGTKVDIKRTVAARTVAAPSVFIFPPSDEQLKSGTASVVCLLNNFYPREAKVQWKVDNALQSGNSQESVTEQDSKDSTYSLSSTLTLSKADYEKHKVYACEVTHQGLSSPVTKSFNRGEC
B2: 89C8-23-F2 (other)
heavy: QVQLVQSGAEVKKPGSSVKVSCKASGGTFSSYAISWVRQAPGQGLEWMGGIIPILGIANYAQKFQGRVTITADKSTSTAYMELSSLRSEDTAVYYCARGGLGFGELFRKTGYYFDYWGQGTLVTVSSASTKGPSVFPLAPSSKSTSGGTAALGCLVKDYFPEPVTVSWNSGALTSGVHTFPAVLQSSGLYSLSSVVTVPSSSLGTQTYICNVNHKPSNTKVDKKV[letters of human IgG1 Fc with changes not shown]GGGGSGGGGSGGGGSGGGGSGEQAKTFLDKFNHEAEDLFYQS
light: EQAKTFLDKFNHEAEDLFYQSGGGGSGGGGSGGGGSGGGGSGEIVMTQSPATLSVSPGERATLSCRASQSVSSNLAWYQQKPGQAPRLLIYAASTRATAIPARFSGSGSGTEFTLTISSLQSEDFAVYFCQQYNKLPLTFGGGTKVDIKRTVAARTVAAPSVFIFPPSDEQLKSGTASVVCLLNNFYPREAKVQWKVDNALQSGNSQESVTEQDSKDSTYSLSSTLTLSKADYEKHKVYACEVTHQGLSSPVTKSFNRGEC
B3: 89C8-23-F3 (other)
heavy: QVQLVQSGAEVKKPGSSVKVSCKASGGTFSSYAISWVRQAPGQGLEWMGGIIPILGIANYAQKFQGRVTITADKSTSTAYMELSSLRSEDTAVYYCARGGLGFGELFRKTGYYFDYWGQGTLVTVSSASTKGPSVFPLAPSSKSTSGGTAALGCLVKDYFPEPVTVSWNSGALTSGVHTFPAVLQSSGLYSLSSVVTVPSSSLGTQTYICNVNHKPSNTKVDKKV[letters of human IgG1 Fc with changes not shown]
light: B2 light

These binders were tested against S1-His (SARS-CoV-2).

In order of falling Kd:
1. B3  34 nM
2. B2  33 nM
3. B1  11 nM

In order of falling koff:
1. B3  0.000867 s⁻¹
2. B2  0.000786 s⁻¹
3. B1  0.000432 s⁻¹

In order of falling kon:
1. B1  39300 M⁻¹ s⁻¹
2. B3  25300 M⁻¹ s⁻¹
3. B2  24100 M⁻¹ s⁻¹
